Structures are written as SMILES. The campaign covered roughly 310,000 compounds. About 14,000 (4.5%) showed an effect of 50% or more. Effects have a minus sign here. This is one part of the list.
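Further: peak tail current of the secondary pulse compared with the same well before compound.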

In the test the target is human ether-à-go-go-related gene (hERG) potassium channel (human, UniProt Q12809). The test is described as follows: primary screen, population patch clamp on CHO cells stably expressing hERG.
Sequence of human ether-à-go-go-related gene (hERG) potassium channel (Q12809 whole entry, looked up): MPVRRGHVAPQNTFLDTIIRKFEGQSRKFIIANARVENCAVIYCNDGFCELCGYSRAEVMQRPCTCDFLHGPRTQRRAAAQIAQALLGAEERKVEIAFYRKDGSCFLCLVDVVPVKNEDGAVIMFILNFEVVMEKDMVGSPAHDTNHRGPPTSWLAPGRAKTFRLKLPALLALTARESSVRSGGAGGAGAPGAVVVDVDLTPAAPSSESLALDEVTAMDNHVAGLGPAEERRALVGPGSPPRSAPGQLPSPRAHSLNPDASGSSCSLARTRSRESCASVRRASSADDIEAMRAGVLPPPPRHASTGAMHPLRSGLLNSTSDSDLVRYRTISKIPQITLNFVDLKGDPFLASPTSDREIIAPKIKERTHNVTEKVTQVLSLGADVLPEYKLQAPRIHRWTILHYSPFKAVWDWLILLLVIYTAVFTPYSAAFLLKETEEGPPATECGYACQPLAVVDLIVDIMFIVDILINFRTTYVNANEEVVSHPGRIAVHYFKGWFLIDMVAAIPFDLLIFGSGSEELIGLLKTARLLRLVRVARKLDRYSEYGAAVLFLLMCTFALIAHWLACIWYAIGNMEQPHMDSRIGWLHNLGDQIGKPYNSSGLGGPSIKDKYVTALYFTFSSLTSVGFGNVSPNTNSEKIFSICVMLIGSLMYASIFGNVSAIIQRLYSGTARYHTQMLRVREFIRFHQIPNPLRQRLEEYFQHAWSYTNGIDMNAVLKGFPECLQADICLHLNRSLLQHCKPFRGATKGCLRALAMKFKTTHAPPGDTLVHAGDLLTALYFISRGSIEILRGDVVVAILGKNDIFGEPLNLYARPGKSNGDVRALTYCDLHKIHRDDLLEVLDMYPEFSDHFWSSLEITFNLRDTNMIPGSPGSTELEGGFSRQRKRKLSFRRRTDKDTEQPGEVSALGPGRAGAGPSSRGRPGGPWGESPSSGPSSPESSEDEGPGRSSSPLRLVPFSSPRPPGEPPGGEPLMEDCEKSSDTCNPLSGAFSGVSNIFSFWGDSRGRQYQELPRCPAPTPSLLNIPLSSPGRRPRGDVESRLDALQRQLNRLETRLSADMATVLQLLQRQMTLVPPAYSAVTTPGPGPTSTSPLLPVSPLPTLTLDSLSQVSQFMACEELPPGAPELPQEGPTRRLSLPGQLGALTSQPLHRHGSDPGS
`Cc1ccc(CCNC(=O)C2CC(c3cc(C(F)(F)F)cc(C(F)(F)F)c3)=NO2)cc1` (stereo not shown): the “hERG current change (%, negative = inhibition) at 10uM” value came to 9.4%.
In the case of `CCn1cc(C(=O)N[C@H](C(=O)NCCO)C(C)C)c(=O)c2cc3c(cc21)OCO3` it was 13.2%.
For `O=C(NNC(=O)C1C2C=CC(C2)C1C(=O)O)c1ccccc1O` (stereo not shown), the “hERG current change (%, negative = inhibition) at 10uM” value was 5.46%.
For `CC1=C/C(=C(\c2ccc(O)c(C)c2)c2ccccc2S(=O)(=O)O)C=CC1=O` the value was 26.3%.
In the case of `COc1ccc(CCN2C(=O)CS/C2=N\NC(=O)c2ccc(C(C)(C)C)cc2)cc1OC` it was 11.3%.
For `O=C1/C(=C/c2ccccc2)Nc2ccccc21` the value was 2.99%.
Regarding `Br.CC(=O)NNc1nc(-c2ccc(C)cc2)cs1`, the “hERG current change (%, negative = inhibition) at 10uM” value was found to be 17.1%.
For `CC(/C=C1\SC(=S)N(C(C(=O)O)c2ccccc2)C1=O)=C\c1ccccc1` (stereo not shown) the value was 6.23%; for `Cc1ccc(C(=O)Nc2nnc(C3=COCCO3)o2)cc1C`, -16.3%; for `CCOC(=O)c1c(C)[nH]c(C(=O)/C(C#N)=C/c2ccc(OC)c(OC)c2)c1C`, 9.5%.
In the case of `CCn1c(C)c(C)c2cc(C(=O)NCCCN3CCN(C)CC3)ccc21` it was 15.5%; in that of `CCC1CCCCN1C(=O)c1c(-c2ccccc2)noc1C` (stereo not shown), 3.53%; in that of `Cc1cc(C(=O)CSc2nn3c(=O)c(C(C)(C)C)nnc3s2)c(C)n1C`, 9.61%.
For `O=C1CCCC2=C1C(c1cccs1)Nc1ccccc1N2` (stereo not shown) the value was 9.43%.
For the compound `CC(C)OC(=O)Nc1ccc2c(c1)N(C(=O)CCN1CCN(CCO)CC1)c1ccccc1CC2.Cl.O`, the “hERG current change (%, negative = inhibition) at 10uM” value is 7.07%.
For `Cc1ccc(C)n1-c1ccc(C(=O)N/N=C/c2ccncc2)cc1` the value was -18.5%; for `Cc1ccsc1/C=N/N=C1\C(=O)Nc2ccccc21`, 7.87%; for `Cc1cc(C)n(C(=O)/C(C#N)=N/Nc2cc(Cl)cc(Cl)c2)n1`, 11.3%.
In the case of `CCC(C)(C)NC(=O)C(c1cccs1)N(C(=O)c1ccn[nH]1)c1ccccc1` (stereo not shown) it was -19.9%; in that of `Cc1ccc(C)c(OCc2cc(C(=O)N3CCNC(=O)C3)no2)c1`, 10.4%.
In the case of `CCOC(=O)N1CCC(N2CCCC(CO)(Cc3ccccc3C)C2)CC1` (stereo not shown) it was 0.621%; in that of `COc1ccc(CC(=O)NNc2ncnc3c2cnn3-c2ccc(C)cc2)cc1`, -1.17%.
In the case of `O=C(Nc1ccc2[nH]c(=O)[nH]c2c1)Nc1ccc(F)cc1F`, the “hERG current change (%, negative = inhibition) at 10uM” value was 8.6%.
For `O=C(CCN1C(=O)c2ccc([N+](=O)[O-])cc2C1=O)Nc1nccs1` the value was 6.76%.
For `O=C(OCC(=O)N1CCCC1)c1ccc(OC(F)(F)F)cc1` the value was -3.51%.
`O=C(Nc1ccc(F)cc1)NC1CCN(Cc2ccccc2)CC1`: the “hERG current change (%, negative = inhibition) at 10uM” value is listed as -36.7%.
In the case of `COc1ccc([N+](=O)[O-])cc1CSc1nnc(NC(C)=O)s1` it was 0.29%.
In the case of `COc1cccc(CNc2nc(SC)ncc2CO)c1` it was 14.5%.
In the case of `CCOc1ccc(N2C(=O)CS/C2=N/NC(=O)COc2ccc3ccccc3c2)cc1` it was -6.99%.
On to `Cc1ccccc1OCC(=O)Nc1nc2ccccc2[nH]1`, for which the “hERG current change (%, negative = inhibition) at 10uM” value worked out at 13.1%.
In the case of `CN(Cc1ccc(F)cc1)Cc1nc(-c2cnccn2)no1` it was 13.7%; in that of `COc1cc(CC2COC(c3ccc(O)c(OC)c3)C2COC(C)=O)ccc1O` (stereo not shown), -6.69%; in that of `Cc1ccc(OCC(=O)Oc2ccccc2[N+](=O)[O-])cc1`, 4.98%.
In the case of `Cc1nnc2ccc(N3CCOCC3)nn12` it was 2.88%; in that of `Fc1ccc(-n2c(-c3ccc4ccccc4n3)n[nH]c2=S)cc1`, 30%; in that of `Cc1cccc(C)c1NC(=O)Cn1c(CN2CCCCC2)nc2ccccc2c1=O`, 12.1%.
For `CCOc1cc(C(=O)Nc2ccccc2N2CCOCC2)ccc1OCC(=O)N1CCCCC1` the value was 3.09%; for `CCN(CC)C(=O)CSc1ncccc1-c1nc2ccccc2[nH]1`, -1.29%.
Consider `CN1CCN(C(CNC(=O)C(=O)Nc2ccc3c(c2)OCCO3)c2ccc(F)cc2)CC1` (stereo not shown), for which the “hERG current change (%, negative = inhibition) at 10uM” value is recorded as -46.2%.
For `Cn1c(NNC(=O)CCC2CCCCC2)cc(=O)n(C)c1=O` the value was 13.1%; for `CN(Cc1ccccc1)C(=O)c1[nH]cnc1C(=O)NCC(=O)OCc1ccccc1`, -17.4%.
`O=C(OCC(=O)N1CCc2ccccc21)c1cccnc1`: the “hERG current change (%, negative = inhibition) at 10uM” value is recorded as -0.586%.
In the case of `CCC(=O)NC(=S)Nc1c(C)cc(Br)cc1C`, the “hERG current change (%, negative = inhibition) at 10uM” value is on record as 11.3%.
For `Cc1ccccc1N1CCN(CC(=O)NCc2ccc(Cl)cc2)CC1` the value was -27%; for `Cc1ccc(-c2nc(S(=O)(=O)c3ccc(C)cc3)c(SCC(N)=O)o2)cc1`, 11.8%.
For `N/C(=N\O)c1cccc(CS(=O)(=O)c2ccccn2)c1`, the “hERG current change (%, negative = inhibition) at 10uM” value is reported as 23.8%.
In the case of `CC(=O)Nc1ccc(Nc2cc(-c3ccccc3)nc3ncnn23)cc1` it was 17.1%; in that of `COc1ccc(OC)c(S(=O)(=O)N2CCNCC2)c1`, -3.13%.
For `CC1CN(CC(=O)NCc2ccc(Cl)cc2)CC(C)O1` (stereo not shown) the value was 3.5%; for `COCCNC(=O)c1ccc(N(C)S(=O)(=O)c2ccc(OC)c(OC)c2)cc1`, 1.7%; for `O=c1oc2cc(OCc3ccc([N+](=O)[O-])cc3)ccc2c2c1CCCC2`, 0.447%.
Consider `CCCCN1CC(=O)N2Cc3[nH]c4ccccc4c3C[C@H]2C1=O`, for which the “hERG current change (%, negative = inhibition) at 10uM” value was 13.1%.
For `COc1ccccc1CNCc1cc(=O)oc2c(C)c(C)ccc12` the value was -14.4%; for `O=S(=O)(c1ccc(-c2ccon2)s1)N1CCN(c2ccccn2)CC1`, 7.27%; for `Cc1csc(=O)n1CCC(=O)OCC(=O)Nc1ncc(Cl)cc1Cl`, -1.4%.
For `CCC(=O)N1c2ccc(C)cc2C2=NNC(=S)NC21O` (stereo not shown) the value was 5.02%; for `COCn1c(COc2ccc3ccccc3c2)nc2ccccc21`, -6%; for `CCC(=O)Nc1ccc(Cl)c(NC(=O)c2cccnc2)c1`, -3.92%.
Consider `O=C(c1ccc(COc2ccc3c(c2)CCC3)o1)N1CCN(c2ccccc2)CC1`, for which the “hERG current change (%, negative = inhibition) at 10uM” value is 15.5%.
For the compound `O=C(CNC(=S)N(CCCN1CCOCC1)Cc1cccs1)NC1CCCCC1`, the “hERG current change (%, negative = inhibition) at 10uM” value is given as -31.2%.
For `C=CCC(O)(CC=C)C(C)N.Cl` (stereo not shown) the value was 47.6%.
In the case of `COc1ccccc1N1CCN(C(=O)C(=O)c2cn(CC(=O)N3CCOCC3)c3ccccc23)CC1`, the “hERG current change (%, negative = inhibition) at 10uM” value worked out at 11.4%.
Take `O=C(CNCc1ccccc1Cl)NCc1ccco1.O=C(O)C(=O)O`: the “hERG current change (%, negative = inhibition) at 10uM” value was 5.37%.
In the case of `O=C(O)CSc1nnc(Cc2cccc3ccccc23)n1-c1cc(C(F)(F)F)cc(C(F)(F)F)c1` it was 12.5%; in that of `CCOC(=O)N1CCC(N2Cc3cccc(C(=O)N4CCN(c5cccc(Cl)c5)CC4)c3C2=O)CC1`, -63.7%; in that of `O=C1N(Cc2ccc3c(c2)OCO3)c2ccccc2C1(O)c1c[nH]c2ccccc12` (stereo not shown), 11.1%.
For `Cc1onc(-c2ccccc2Cl)c1C(=O)NCc1ccccc1F` the value was -9.14%; for `COCCN(C(=O)COC(=O)/C=C/c1ccc(C)o1)c1c(N)n(Cc2ccccc2)c(=O)[nH]c1=O`, 20.9%; for `CC(=O)C1=C(O)C(=O)N(c2nccs2)C1c1ccccc1F` (stereo not shown), 16.4%.
In the case of `Cc1noc(C)c1CSc1nnc2ccc3ccccc3n12` it was -25.1%; in that of `O=c1cc(CN2CCOCC2)nc(C2CC2)[nH]1`, 11.9%.
As to `CC1(C)c2[nH]c3ccccc3c2C[C@H]2C(=O)N(Cc3ccccc3)C(=O)N21`, the “hERG current change (%, negative = inhibition) at 10uM” value was determined as 11.2%.
Regarding `O=C(O)c1cccc(N2C(=O)CSC2c2c(F)cccc2Cl)c1` (stereo not shown), the “hERG current change (%, negative = inhibition) at 10uM” value is recorded as 3.04%.
For `Nc1cc(C(=O)O)c(Oc2ccc(Cl)cc2Cl)cc1C(=O)O` the value was 7.83%.
On to `COc1ccc(CN2CCN(C(=O)CC(C)C)CC2)c(OC)c1OC`, for which the “hERG current change (%, negative = inhibition) at 10uM” value worked out at 16.6%.
For `Cc1ccc(S(=O)(=O)CC(=O)N2CCN(c3ccc(F)cc3)CC2)cc1` the value was -51.5%; for `COC(=O)c1ccc(C(=O)NC2CCCc3c2cnn3-c2ccc(C)c(C)c2)cc1` (stereo not shown), 6.54%; for `CSc1nc2sc3c(c2c(=O)n1C)CCC(C)C3` (stereo not shown), 8.3%.
In the case of `O=C(COC(=O)CSc1ccc(Cl)cc1)Nc1ccccc1` it was -6.77%; in that of `COc1ccc(NC(=O)COC(=O)c2ccc(OCc3ccc(Cl)cc3Cl)c(OC)c2)c(OC)c1`, 3.38%; in that of `CN(C)S(=O)(=O)c1ccc(C(=O)OCC(=O)c2csc(N3CCCCC3)n2)cc1`, 2.26%.
In the case of `COc1ccccc1CCc1nnc(CCC(=O)N(C)Cc2cccc3cnccc23)o1` it was -35.3%; in that of `Cc1cc(C)cc(NC(=O)C2CCN(S(=O)(=O)c3c(C)n[nH]c3C)CC2)c1`, -21.1%.
As to `COc1ccccc1CNc1ccc([N+](=O)[O-])cc1C`, the “hERG current change (%, negative = inhibition) at 10uM” value was 4.41%.
For `CS(=O)(=O)N1CCN(c2ccccc2NC(=S)NC(=O)c2ccccc2[N+](=O)[O-])CC1` the value was 6.06%; for `CN(C(=O)CCNC(=O)N1CC(=O)Nc2ccccc21)C1CCCCC1`, 20.1%.
For `Cc1ccccc1C(=O)c1ccc2c(c1)n(C)c(=O)n2C`, the “hERG current change (%, negative = inhibition) at 10uM” value was found to be 2.11%.
In the case of `COc1ccc(C2CC(c3ccccc3)=NN2C(=O)COC(=O)c2ccc(Cl)nc2)cc1` (stereo not shown) it was 13.8%.

(Values after paper PMC4336329 (PLoS ONE, 2015).)
